Laboratory results as given in publication PMC4336329 (PLoS ONE, 2015).
About 2,200 (0.71%) of roughly 310,000 compounds showed an effect of 50% or more. The effect is printed as a negative number. This is one part of the list.

target: human ether-à-go-go-related gene (hERG) potassium channel (human, UniProt Q12809); assay: primary screen, population patch clamp on CHO cells stably expressing hERG
Sequence (Q12809 whole entry, looked up): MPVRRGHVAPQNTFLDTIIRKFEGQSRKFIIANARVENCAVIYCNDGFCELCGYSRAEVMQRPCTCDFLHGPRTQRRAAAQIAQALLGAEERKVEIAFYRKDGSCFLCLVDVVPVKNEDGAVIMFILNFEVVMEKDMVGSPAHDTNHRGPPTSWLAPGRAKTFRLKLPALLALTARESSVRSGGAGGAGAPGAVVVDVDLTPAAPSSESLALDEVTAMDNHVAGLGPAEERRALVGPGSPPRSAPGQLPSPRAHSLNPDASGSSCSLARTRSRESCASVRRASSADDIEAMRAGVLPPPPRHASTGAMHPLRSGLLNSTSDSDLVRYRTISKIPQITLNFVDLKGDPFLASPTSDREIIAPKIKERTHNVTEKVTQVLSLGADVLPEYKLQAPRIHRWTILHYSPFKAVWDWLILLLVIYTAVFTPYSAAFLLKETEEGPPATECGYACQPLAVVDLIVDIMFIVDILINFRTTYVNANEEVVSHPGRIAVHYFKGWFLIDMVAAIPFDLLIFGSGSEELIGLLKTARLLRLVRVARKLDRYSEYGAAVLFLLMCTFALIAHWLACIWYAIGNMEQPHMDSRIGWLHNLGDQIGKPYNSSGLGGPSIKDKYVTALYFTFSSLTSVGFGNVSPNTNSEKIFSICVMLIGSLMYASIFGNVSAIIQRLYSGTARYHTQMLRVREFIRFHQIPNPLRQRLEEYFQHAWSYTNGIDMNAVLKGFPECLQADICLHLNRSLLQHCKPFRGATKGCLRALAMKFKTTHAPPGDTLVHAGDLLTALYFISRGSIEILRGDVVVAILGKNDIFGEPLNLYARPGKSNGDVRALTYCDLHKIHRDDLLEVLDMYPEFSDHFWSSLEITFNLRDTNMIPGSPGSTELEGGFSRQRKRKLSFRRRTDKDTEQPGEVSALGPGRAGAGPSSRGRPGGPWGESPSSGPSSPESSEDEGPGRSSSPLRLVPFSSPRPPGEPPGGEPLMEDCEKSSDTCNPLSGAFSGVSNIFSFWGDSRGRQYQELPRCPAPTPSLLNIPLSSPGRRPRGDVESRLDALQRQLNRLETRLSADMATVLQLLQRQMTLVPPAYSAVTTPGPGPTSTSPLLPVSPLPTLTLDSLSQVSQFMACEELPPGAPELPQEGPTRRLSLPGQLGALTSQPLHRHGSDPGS

Row | Compound | hERG current change (%, negative = inhibition) at 1uM
1 | O=C(CNC(=O)c1cccnc1)N=Nc1c(O)[nH]c2c(Br)cc(Br)cc12 | -1.88%
2 | COc1ccc(Oc2nnc(-c3ccc(C)cc3)c3ccccc23)cc1 | 14%
3 | O=C(Nc1ccccc1N1CCCCC1)c1ccc(-c2ccc(Cl)cc2)o1 | -2.09%
4 | Cc1nc2ccc(Cl)cc2c(=O)n1-c1ccc([N+](=O)[O-])cc1 | 7.13%
5 | CCN1CCN(S(=O)(=O)c2ccc(Cl)c(C(=O)N(C)Cc3cccc(OC)c3)c2)CC1 | 6.8%
6 | O=C(O)CCCNC(=O)c1nn(Cc2ccccc2)c(=O)c2ccccc12 | 14%
7 | O=c1cc(-c2ccccc2)oc2ccc(O)cc12 | 4.17%
8 | COC(=O)c1sc(N)c(C(=O)OC)c1COC(=O)C1CC(=O)N(Cc2ccco2)C1 (centres unmarked) | 10.6%
9 | Cc1nc(C)c(CCNC(=O)c2ccccc2Br)s1 | 6.33%
10 | CCN(CC)CCCN=Cc1c(-c2ccccc2)[nH]n(-c2nc3ccccc3s2)c1=O | -81.7%
11 | CCOC(=O)CN1C(=O)N[C@@H](CCc2ccccc2)C(C(C)=O)=C1C | 1.35%
12 | CC(C)CC(OC(=O)c1ccco1)C(=O)NCC1CCCO1 (centres unmarked) | 18.1%
13 | CN(C)c1ccc(Nc2c3c4c(cccc4n(C)c2=O)C(=O)c2ccccc2-3)cc1 | 14.5%
14 | Cc1cccc(NC(=O)C2(C)CC3c4ccccc4C2c2ccccc23)c1C (centres unmarked) | 7.61%
15 | CCC(=O)N/N=C(\C)CC(=O)Nc1ccccc1-c1ccccc1 | 3.9%
16 | CCOc1ccc(CCNC(=O)C2CCCN(C(=O)N(C)C)C2)cc1OCC (centres unmarked) | 2.22%
17 | CSc1ccc(C(=O)C2CCCN(C(=O)CCn3cncn3)C2)cc1 (centres unmarked) | 0.648%
18 | O=c1c2cc([N+](=O)[O-])ccc2nc(CN2CCN(c3ccccn3)CC2)n1-c1ccccc1F | 8.49%
19 | O=S(=O)(c1cccc(NC(=S)Nc2ccc(Br)cc2Cl)c1)N1CCOCC1 | 7.43%
20 | CC(=O)c1coc2c1cc(O)c1ccccc12 | 16.5%
21 | O=S1(=O)N=C(N2CCN(Cc3ccc4c(c3)OCO4)CC2)c2ccccc21 | 3.01%
22 | CC(OC(=O)CCCC(=O)Nc1ccccc1)C(=O)c1ccccc1 (centres unmarked) | 9.71%
23 | COc1ccc(C2/C(=C(/O)c3ccc(OC(C)C)cc3)C(=O)C(=O)N2CCCN2CCOCC2)cc1 (centres unmarked) | 6.08%

Row | Compound | hERG current change (%, negative = inhibition) at 1uM
24 | COc1ccccc1CNC(=O)CSc1n[nH]c(N)n1 | 14.4%
25 | CC(C)(C)n1nnnc1C(c1ccncc1)N(Cc1ccccc1)Cc1ccco1 (centres unmarked) | 1.56%
26 | CCCCN(CC)CCCNC(=O)C1c2ccccc2C(=O)N(C)C1c1cn(C)c2ccccc12 (centres unmarked) | -39.1%
27 | CCN(CC)C(=O)CSc1nnc(-c2cc(OC)cc(OC)c2)o1 | 10.4%
28 | Cc1csc(=O)n1CC(=O)OCC(=O)NNC(=O)c1ccc([N+](=O)[O-])cc1 | 1.14%
29 | O=Cc1ccc(-c2cccc([N+](=O)[O-])c2)o1 | 10.2%
30 | CCCCN1CCNC1=S | 4.37%
31 | COc1ccc(N(C(=O)CNC(=O)c2ccco2)C(C(=O)NC2CCCC2)c2ccncc2)cc1 (centres unmarked) | 12.3%
32 | CCC(NC(=O)c1cc(COc2c(F)cccc2F)on1)c1ccncc1 (centres unmarked) | 10.7%
33 | CCCn1c(=O)c(C(=O)NCC2CCCO2)c(O)c2ccccc21 (centres unmarked) | 2.17%
34 | O=C(N/C(=C\c1ccc2c(c1)OCO2)C(=O)N1CCOCC1)c1ccccc1Br | 9.23%
35 | COC(=O)c1c(-n2cnnn2)sc(C)c1C | 12.7%
36 | Cc1cc(C)c(OCCOCCN2CCN(C)CC2)c(Cl)c1.O=C(O)C(=O)O | 9.6%
37 | CN1N=C(c2ccc(F)c(F)c2)CSC1=NCc1ccccc1 | 16.4%
38 | NC(=O)C1CCN(c2ncccc2[N+](=O)[O-])CC1 | 10.3%
39 | O=C(Nc1cc(Cl)ccc1C(=O)O)c1ccc(CN2C(=O)c3ccccc3C2=O)cc1 | 20.8%
40 | CC(NC(=O)COC(=O)[C@@H]1CCCN1S(=O)(=O)c1ccccc1F)C12CC3CC(CC(C3)C1)C2 (some centres unmarked) | 14.5%
41 | CCCCCCCCOC(=O)/C=C/c1c(C)[nH]c(=O)[nH]c1=O | 3.4%
42 | CN(C)N=Nc1ccc(S(=O)(=O)N2CCSC2C(=O)O)cc1 (centres unmarked) | 4.16%
43 | S=c1[nH]nc(-c2ccc3ccccc3n2)o1 | 13.3%
44 | O=C(NCCn1cccn1)c1ccc(OC2CCN(C(=O)C3CC3)CC2)cc1 | 12%
45 | O=C(O)/C=C/c1cn(-c2ncc(C(F)(F)F)cc2Cl)c2ccccc12 | 11.6%
46 | COc1ccc(NC(=O)COC(=O)C2CCN(S(=O)(=O)c3cccs3)CC2)cc1 | -0.894%

Row | Compound | hERG current change (%, negative = inhibition) at 1uM
47 | Cn1c(=O)oc2cc(S(=O)(=O)NC3CCN(Cc4ccccc4)CC3)ccc21 | -4.35%
48 | COc1cc(/C=N\NC(=O)OC(C)(C)C)ccc1OC(=O)c1ccco1 | 22.6%
49 | N#CCc1ccc(OC(=O)c2cccnc2)cc1 | 9.04%
50 | COc1ccc(C(=O)NC2CCC(O)CC2)cc1S(=O)(=O)NCc1ccc(Cl)cc1 (centres unmarked) | -0.258%
51 | COc1ccc(N2CCOCC2)c(NC(=O)c2cccnc2)c1 | 12.1%
52 | O=C(COC(=O)c1cccc(S(=O)(=O)N2CCOCC2)c1)Nc1ccc2c(c1)OCO2 | 6.57%
53 | COC(=O)C(CSCc1ccccc1)NC(=O)CSc1nc(C)cc(=O)[nH]1 (centres unmarked) | 17.4%
54 | COc1ccc([N+](=O)[O-])cc1NC(=O)CSc1nccc(C)n1 | 12.3%
55 | COc1cccc(-c2nnc(NC(=O)Cc3cccs3)s2)c1 | 13.5%
56 | CC1C=CCC2C(=O)N(c3cccc(C(=O)Nc4ccc(Br)cc4)c3)C(=O)C12 (centres unmarked) | 4.39%
57 | COc1ccccc1NS(=O)(=O)c1ccc(C)c(C(=O)NC2=NCCS2)c1 | 3.58%
58 | CN(CC(=O)NC1CCCc2ccccc21)C1CCCCC1 (centres unmarked) | 10.9%
59 | COc1ccc(-c2nn3cnnc3s2)cc1OC | 5.46%
60 | Cc1ccc2cc(C(c3nnnn3CC3CCCO3)N3CCc4ccccc4C3)c(=O)[nH]c2c1 (centres unmarked) | -5.09%
61 | O=C(NCc1ccc2c(c1)OCO2)C(=S)N1CCOCC1 | 7.54%
62 | COCCn1c(SCC(=O)N2CCC(C)CC2)nc2c(c1=O)SCC2 | -5.83%
63 | COCCN(C(=O)c1cc(-c2ccncc2)nc2ccccc12)c1c(N)n(CC(C)C)c(=O)[nH]c1=O | 9.54%
64 | COc1ccc(/C=C/C(=O)Nc2ccc(C34CC5CC(CC(O)(C5)C3)C4)cc2)cc1OC | 12.6%
65 | CCOC(=O)CSc1nc2ccsc2c(=O)[nH]1 | 0.16%
66 | O=C1C=C(Nc2ccc(O)cc2)C(=O)c2ccccc21 | 12.8%
67 | CC1(C)CC(=O)C(C2=NC3(CCCCCC3)Cc3ccccc32)=C(O)C1 | 2.77%
68 | Cc1c(NC(=O)C(C)Oc2ncnc3ccccc23)c(=O)n(-c2ccccc2)n1C (centres unmarked) | 3.53%
69 | Cc1ccc(C(=O)Cn2ncsc2=N)cc1 | -0.998%

Row | Compound | hERG current change (%, negative = inhibition) at 1uM
70 | O=C(COC(=O)/C=C/c1ccccc1)Nc1nnc(-c2ccccc2)o1 | 9.69%
71 | COc1ccc([C@H]2CC(=O)C=C(c3ccc(-c4ccccc4)c(F)c3)C2)cc1OC | 17.4%
72 | O=C(Nc1ccc(Cn2nnc3ccccc32)cc1)c1ccco1 | 9.6%
73 | O=C1CCC(C(=O)NCc2cccnc2)N1 (centres unmarked) | 17.5%
74 | COc1ccc(Cl)cc1N(CC(=O)NC(C)(C)C)S(=O)(=O)c1ccc(C)c([N+](=O)[O-])c1 | 6.65%
75 | Cc1cccc(OCC(=O)Nc2nnn(C)n2)c1C | 14.3%
76 | CC(=O)c1sc(N/N=C\c2ccc(C)cc2)nc1C | 15%
77 | Nn1c(SCc2cc([N+](=O)[O-])cc3c2OCOC3)nnc1-c1ccccn1 | 3.76%
78 | CC(C)(C)C(=O)Nc1nnc(SCC(=O)NCc2cccs2)s1 | 12.4%
79 | CS(=O)(=O)N1CCN(c2ncccn2)CC1 | 7.77%
80 | Oc1ccc2ccccc2c1N=Nc1ccc(F)cc1 | 14.2%
81 | Cc1cccc(NC(=O)N2CCCc3ccccc32)c1C | 12.4%
82 | N#C/C(=C\c1ccc(Sc2ccc(Cl)cc2)o1)c1nc2ccccc2[nH]1 | 3.08%
83 | CCSc1nc2c(cnn2-c2ccccc2)c(=O)n1N | 10.8%
84 | CCOC(=O)c1c(NC(=O)c2ccc(Br)o2)sc(C)c1CC | 1.58%
85 | CCN1CCN(Cc2nc3c(c(=O)[nH]c(=O)n3C)n2Cc2ccccc2Cl)CC1 | 10.5%
86 | CCCNC(=O)C(CC)NC(=O)c1ccc(C#N)cc1 (centres unmarked) | 15.5%
87 | CCOC(=O)C1CCN(C(=O)CCC2CCCC2)CC1 | 17.5%
88 | O=C(COC(=O)c1ccco1)Nc1ccc(Br)cc1 | 15.3%
89 | O=C(CCN1C(=O)C2CC=C(Cl)CC2C1=O)Nc1ccccc1O (centres unmarked) | 9.28%
